The other results are listed elsewhere or left out. Antibody binding of pooled human sera (four to six donors per pool; dilution not stated) to peptides of the Trypanosoma cruzi antigen TSSA on microarrays. Quantile-normalised fluorescence in arbitrary units, mean of duplicate arrays; higher = more binding. No active / inactive call. The uninfected pools are read here as the healthy donors of the same country. The strongest signals lie near the top of the scale (about 60,000).
Experiments:
Assay in all cases: antibody binding signal (normalised fluorescence) (arbitrary fluorescence units); higher = stronger serum antibody binding to peptide
[1] = system: pooled sera of chronic Chagas disease patients, Argentina
Protocol: (§1)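 Microarray of 15-residue peptides over residues 30-55 of Trypanosoma cruzi TSSAII, each with 1 to 10 substitutions at naturally variable positions, probed with one serum pool per country.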

[2] = system: pooled sera of chronic Chagas disease patients, Bolivia
Protocol: as §1

[3] = system: pooled sera of chronic Chagas disease patients, Brazil
Protocol: as §1

[4] = system: pooled sera of chronic Chagas disease patients, Colombia
Protocol: as §1

[5] = system: pooled sera of chronic Chagas disease patients, Mexico
Protocol: as §1

[6] = system: pooled sera of chronic Chagas disease patients, USA
Protocol: as §1

[7] = system: pooled sera of uninfected people, Argentina
Protocol: as §1

[8] = system: pooled sera of uninfected people, Bolivia
Protocol: as §1

[9] = system: pooled sera of uninfected people, Brazil
Protocol: as §1

[10] = system: pooled sera of uninfected people, Colombia
Protocol: as §1

[11] = system: pooled sera of uninfected people, Mexico
Protocol: as §1

[12] = system: pooled sera of uninfected people, USA
Protocol: as §1

Row | Sequence | antibody binding signal [1] | antibody binding signal [2] | antibody binding signal [3] | antibody binding signal [4] | antibody binding signal [5] | antibody binding signal [6] | antibody binding signal [7] | antibody binding signal [8] | antibody binding signal [9] | antibody binding signal [10] | antibody binding signal [11] | antibody binding signal [12]
1 | NKTATGGAPSPSGAS | 747 | 474 | 4870 | 760 | 706 | 766 | 798 | 1030 | 455 | 255 | 305 | 1270
2 | STPPSGTENKAAAGG | 51300 | 45800 | 53100 | 1120 | 3800 | 38400 | 2980 | 707 | 468 | 879 | 620 | 843
3 | TDNKAAAGETPSQPG | 2380 | 3600 | 36300 | 202 | 185 | 1550 | 90.7 | 654 | 197 | 237 | 201 | 121
4 | SGKEKKTATGEAPSQ | 13500 | 2330 | 10500 | 1530 | 2280 | 17300 | 364 | 196 | 102 | 125 | 140 | 122
5 | ENKTATGGTPSPSGA | 419 | 2810 | 846 | 601 | 420 | 782 | 328 | 181 | 499 | 639 | 248 | 184
6 | TDNKAAAGGAPSQPG | 406 | 2460 | 13100 | 2250 | 294 | 222 | 382 | 247 | 238 | 211 | 153 | 183
7 | SGTEKKPATGEAPSQ | 44500 | 50800 | 47800 | 321 | 358 | 39700 | 905 | 879 | 531 | 244 | 226 | 275
8 | GTENKTATGGAPSPS | 27500 | 1230 | 1010 | 1290 | 1450 | 958 | 349 | 467 | 410 | 217 | 492 | 153
9 | SGKDKKTAAGGAPSQ | 375 | 347 | 457 | 4330 | 811 | 1030 | 107 | 155 | 144 | 216 | 96 | 119
10 | SSTPPSGTEKKAATG | 38600 | 3000 | 29800 | 549 | 25700 | 4730 | 981 | 420 | 127 | 363 | 108 | 152
11 | ENKPAAGETPSPSGA | 473 | 1290 | 16100 | 426 | 347 | 4440 | 205 | 402 | 194 | 119 | 154 | 447
12 | KDKKTATGGAPSQSG | 475 | 194 | 242 | 697 | 305 | 265 | 203 | 108 | 92.5 | 77.9 | 94.7 | 101
13 | ENKAAAGEAPSQSGA | 561 | 21500 | 27600 | 261 | 191 | 14200 | 87.8 | 167 | 137 | 68.7 | 93.6 | 121
14 | SGTDKKPAAGEAPSQ | 1680 | 17000 | 30900 | 9290 | 824 | 14700 | 111 | 226 | 139 | 353 | 2770 | 136
15 | PPSGKDKKAAAGEAP | 1060 | 640 | 883 | 1060 | 38600 | 5080 | 208 | 430 | 104 | 350 | 74.4 | 106
16 | ENKTAAGGTPSPPGA | 1130 | 1630 | 340 | 4720 | 337 | 1420 | 204 | 180 | 1210 | 241 | 1000 | 166
17 | TEKKPATGGAPSPPG | 2560 | 4260 | 2030 | 3500 | 1470 | 3340 | 450 | 1450 | 317 | 262 | 268 | 1020
18 | TPPSGTDKKTATGET | 8720 | 10800 | 24700 | 3430 | 19600 | 1500 | 233 | 156 | 357 | 370 | 532 | 142
19 | NKTATGGAPSQSGAS | 1280 | 358 | 2350 | 501 | 791 | 577 | 746 | 872 | 304 | 247 | 402 | 1090
20 | GTDKKPAAGETPSPS | 2490 | 1610 | 6000 | 12100 | 2650 | 3450 | 147 | 307 | 144 | 273 | 952 | 1630
21 | EKKTATGGTPSQPGA | 785 | 432 | 935 | 3640 | 661 | 1550 | 471 | 962 | 432 | 608 | 773 | 839
22 | ENKPATGGAPSPSGA | 1380 | 19400 | 5790 | 454 | 1050 | 3540 | 521 | 1080 | 478 | 190 | 245 | 281
23 | GTDNKPAAGETPSPP | 3340 | 269 | 43300 | 1400 | 328 | 5080 | 139 | 572 | 353 | 155 | 383 | 399
24 | SGTENKTATGGTPSQ | 36300 | 14500 | 21100 | 876 | 743 | 5650 | 687 | 436 | 275 | 300 | 491 | 181
25 | KAAAGETPSQSGASS | 174 | 2560 | 9270 | 179 | 193 | 284 | 225 | 355 | 154 | 212 | 895 | 182
26 | GTEKKTAAGGAPSQP | 357 | 666 | 391 | 6830 | 621 | 950 | 173 | 426 | 151 | 283 | 118 | 134
27 | GTDKKAAAGGTPSPS | 246 | 201 | 181 | 4270 | 382 | 1570 | 100 | 195 | 970 | 181 | 118 | 122
28 | TENKAAAGGAPSQSG | 25100 | 432 | 1800 | 2680 | 529 | 358 | 362 | 188 | 217 | 218 | 156 | 286
